Assay results published in the supplement of paper PMC10126150.
Sequences with one replicate were seen in a single cluster, so their values are uncertain.

tested on: ATP; experiment: switch fluorescence ratio, 500 uM ATP over buffer (Cy3 cluster intensity, sum of 5 cycles each) (fold (ratio)); higher = stronger signal-on switching upon ATP binding; sequences stand for … in TCGTCGGCAGCGTCAGATGTGTATAAGAGACAGTTTTTTTTTTTTTTTTTTTTTTTTT…TC; conditions: aptamer strand: ATP DNA aptamer (quencher-CACCTGGGGGAGTATTGCGGAGGAAGG + anchor), 100 nM annealed; ATP concentration: 500 uM; one replicate
How it was run: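 Exposure to 500 uM ATP lasted 15 min at 22 °C before imaging, and a selection-buffer image was taken beforehand, for Cy3-labelled switching-strand clusters on a modified Illumina MiSeq flow-cell annealed to 100 nM quencher-labelled ATP aptamer. Five buffer/ATP cycles were run with NaOH stripping and re-annealing between them. The fluorescence ratio per cluster is summed target-cycle over summed buffer-cycle Cy3 intensity, averaged per switch-domain sequence. Clusters outside 100-1000 RFU were excluded.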

Row | Sequence | switch fluorescence ratio
1 | ATTCTAACGG | 1.03
2 | ATTCTAGGGC | 0.989
3 | ATTCTATGGT | 0.991
4 | ATTCTATTTG | 0.946
5 | ATTCTGAGGA | 0.9
6 | ATTCTGATCA | 1.01
7 | ATTCTGCAGG | 1.07
8 | ATTCTGGTTC | 0.998
9 | ATTCTTGCT | 0.961
10 | ATTGAACAGT | 0.981
11 | ATTGAAGTGT | 0.983
12 | ATTGAATCGG | 0.988
13 | ATTGAATCGT | 1.02
14 | ATTGAATGAT | 1.04
15 | ATTGACCACG | 0.975
16 | ATTGAGAGAG | 0.988
17 | ATTGAGGGAT | 0.952
18 | ATTGAGTCAT | 0.992
19 | ATTGATGGAT | 1.02
20 | ATTGCAAGAA | 1.03
21 | ATTGCACTCA | 1.02
22 | ATTGCAGGTA | 1.02
23 | ATTGCCATGA | 0.959
24 | ATTGCCTTG | 0.996
25 | ATTGCCTTTT | 0.995

Row | Sequence | switch fluorescence ratio
26 | ATTGCGACAT | 1
27 | ATTGCGAGAA | 0.994
28 | ATTGCGTTCT | 0.969
29 | ATTGCTAAAG | 0.973
30 | ATTGGACAGC | 1.09
31 | ATTGGACGT | 1.01
32 | ATTGGATCAA | 1.05
33 | ATTGGATCTA | 0.943
34 | ATTGGCAACG | 0.971
35 | ATTGGCGTCC | 1.01
36 | ATTGGCTACC | 0.966
37 | ATTGGGTCTG | 0.933
38 | ATTGGGTGCC | 1.03
39 | ATTGGTCATC | 1.01
40 | ATTGGTCCG | 0.971
41 | ATTGGTCTAC | 0.969
42 | ATTGGTTGAT | 0.988
43 | ATTGTAAGCT | 1.02
44 | ATTGTAAGGA | 0.981
45 | ATTGTAGGTC | 1
46 | ATTGTATGG | 1.04
47 | ATTGTGAGGA | 0.989
48 | ATTGTGCTGC | 1.02
49 | ATTGTGGTT | 0.959
50 | ATTGTTAACT | 0.997

Row | Sequence | switch fluorescence ratio
51 | ATTGTTGGAA | 0.95
52 | ATTGTTTCAC | 1.01
53 | ATTTAAAGGA | 1
54 | ATTTAAGGAG | 0.976
55 | ATTTACCTGC | 1
56 | ATTTACTAGG | 1.01
57 | ATTTATACTA | 0.978
58 | ATTTATATAG | 0.987
59 | ATTTATCTGC | 1.04
60 | ATTTATTAGG | 1.02
61 | ATTTCATCCG | 1.81
62 | ATTTCCACCT | 1.1
63 | ATTTCCTGGC | 1.1
64 | ATTTCCTGGT | 0.979
65 | ATTTCGATAC | 2.38
66 | ATTTCGCGCG | 0.963
67 | ATTTCGGGCG | 0.974
68 | ATTTCTCCAG | 1.09
69 | ATTTCTCGTG | 0.975
70 | ATTTCTCTTT | 1.01
71 | ATTTCTTGGC | 0.989
72 | ATTTGACGT | 1.06
73 | ATTTGATAAC | 0.964
74 | ATTTGATATA | 1.02
75 | ATTTGATTAT | 0.959

Row | Sequence | switch fluorescence ratio
76 | ATTTGCGGGG | 0.996
77 | ATTTGCTCGT | 1
78 | ATTTGCTGAC | 1.09
79 | ATTTGGACTC | 1.01
80 | ATTTGGCACG | 0.997
81 | ATTTGGGCAG | 1.01
82 | ATTTGTATAC | 1.01
83 | ATTTGTGGCA | 0.986
84 | ATTTGTTGTT | 1
85 | ATTTTACGAG | 0.998
86 | ATTTTATCGG | 1.03
87 | ATTTTCCGCT | 1.06
88 | ATTTTCTTAT | 1.04
89 | ATTTTGATGC | 1.05
90 | ATTTTGTAAA | 0.998
91 | ATTTTTCATC | 0.99
92 | ATTTTTCGTC | 1.05
93 | ATTTTTTG | 0.954
94 | CAAAAAAACG | 1.02
95 | CAAAAAATAG | 1.11
96 | CAAAACACGT | 1.01
97 | CAAAACGGGT | 1.01
98 | CAAAAGATT | 0.997
99 | CAAAAGCTTC | 1.12
100 | CAAAAGGGTT | 0.993

Row | Sequence | switch fluorescence ratio
101 | CAAACCTGGT | 1.07
102 | CAAACCTTAG | 1.22
103 | CAAACGATAG | 0.948
104 | CAAACTTAAT | 1.01
105 | CAAACTTCC | 2.83
106 | CAAACTTTAC | 1.26
107 | CAAAGACTAA | 0.965
108 | CAAAGATTGA | 1
109 | CAAAGCAGTA | 1.1
110 | CAAAGCCAAC | 1.25
111 | CAAAGCCAGT | 1.01
112 | CAAAGCCGTG | 1.02
113 | CAAAGGAATG | 1.02
114 | CAAAGGAATT | 1
115 | CAAAGGCACT | 0.998
116 | CAAAGTTTAA | 1.03
117 | CAAATAATGT | 1.04
118 | CAAATAGGC | 0.963
119 | CAAATGACCC | 0.99
120 | CAAATGCATT | 1.01
121 | CAAATTCGCG | 1.02
122 | CAACACAATA | 1.53
123 | CAACACGTAT | 1.18
124 | CAACAGACGG | 1.22
125 | CAACAGAGTA | 1.01

Row | Sequence | switch fluorescence ratio
126 | CAACAGTACA | 1.21
127 | CAACAGTTAG | 0.985
128 | CAACATGGGC | 1.04
129 | CAACCACTCG | 1.03
130 | CAACCCAGAC | 1.58
131 | CAACCCTTTG | 0.994
132 | CAACGAAAAT | 1.03
133 | CAACGACGAT | 1.1
134 | CAACGATGTG | 1.03
135 | CAACGATTAC | 2.04
136 | CAACGCCGTT | 1.08
137 | CAACGCTATT | 1.69
138 | CAACGGATGG | 0.989
139 | CAACGTTGCT | 0.996
140 | CAACTACGAT | 1.06
141 | CAACTAGGCT | 0.977
142 | CAACTAGGGT | 0.989
143 | CAACTAGTTG | 1.01
144 | CAACTGGGCG | 1.03
145 | CAACTGTTCT | 0.994
146 | CAACTTGGAA | 1.01
147 | CAAGAAAGC | 0.965
148 | CAAGACGCGG | 0.997
149 | CAAGAGAGGG | 1.01
150 | CAAGAGGACA | 1.07

Row | Sequence | switch fluorescence ratio
151 | CAAGATATTA | 1.02
152 | CAAGATTGTA | 0.993
153 | CAAGCCGTTA | 1.02
154 | CAAGGACGCT | 1.04
155 | CAAGGCATCC | 1.08
156 | CAAGGGGCTC | 1.01
157 | CAAGGGGGTC | 0.982
158 | CAAGGTAGCT | 0.977
159 | CAAGGTAGTC | 0.993
160 | CAAGGTTCTG | 0.981
161 | CAAGGTTTCC | 1.01
162 | CAAGTAACT | 1.01
163 | CAAGTACCGG | 1.11
164 | CAAGTCTTTA | 0.944
165 | CAAGTGCAAC | 0.976
166 | CAAGTGGTCT | 0.994
167 | CAAGTTCAGG | 1
168 | CAAGTTTTA | 0.976
169 | CAATAAAAC | 1.01
170 | CAATAAAGTG | 0.913
171 | CAATAAGGCT | 0.974
172 | CAATAAGTGC | 0.991
173 | CAATACGAGG | 1.38
174 | CAATAGATCG | 1.02
175 | CAATAGCCGC | 1.01

Row | Sequence | switch fluorescence ratio
176 | CAATAGCGCC | 1.06
177 | CAATATATGT | 0.997
178 | CAATCCTAGT | 0.977
179 | CAATCGGATG | 1.03
180 | CAATCTGTCA | 1.01
181 | CAATCTTTCT | 1.05
182 | CAATGAGCG | 0.967
183 | CAATGATTAC | 1.07
184 | CAATGCATAT | 1.03
185 | CAATGCCTAC | 1.13
186 | CAATGCGCTT | 1
187 | CAATGCTTTC | 1.05
188 | CAATGGCACC | 1.05
189 | CAATGGTTT | 0.98
190 | CAATGTGACC | 1.09
191 | CAATGTTGGC | 0.998
192 | CAATTACCTT | 1.05
193 | CAATTGGGAG | 0.938
194 | CAATTGTTGT | 0.968
195 | CAATTTCTAT | 0.935
196 | CAATTTCTCG | 0.995
197 | CAATTTGGT | 1.02
198 | CACAAAAGAA | 0.984
199 | CACAAAGGGA | 0.991
200 | CACAACAAAG | 1.01
